# Data taken from PubChem BioAssay AID1460 (National Center for Advancing Translational Sciences (NCATS), 2008).
# Out of some 270,000 compounds screened, about 5,800 (2.1%) were called active. Inconclusive results, whose numbers are uncertain, are shown with a selection of clear calls. Calls follow the shape of the dose curve; as a rule, active = well fitted inhibition curve with a large enough effect; inconclusive = small, poorly fitted or top-dose-only effect; inactive = flat fitted curve, though single readings scatter. Potencies beside an inconclusive call are fits to weak or partial responses and may not hold up.
# Molecular target: Microtubule-associated protein tau (Homo sapiens) (UniProt P10636)
# Experiment: qHTS for Inhibitors of Tau Fibril Formation, Thioflavin T Binding; also: nearly all actives have a fitted effect of over 55% in size
# Settings: recombinant tau K18 P301L (four-repeat tau fragment), heparin-induced fibrillization, ThT fluorescence; series mostly up to 57.4 µM; activity, negative = inhibition: at the top concentration
# Procedure, shortened: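 Heparin-induced fibrillization of the P301L-mutant K18 repeat-domain fragment of human tau was followed by ThT binding in quantitative high-throughput format.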
# % is scaled to controls: 0 for no effect and ±100 for the full control effect; potency is read from the fitted curve at half-maximal effect; tags tell the direction and shape of the fitted curve.
# Sequence of UniProt P10636 (P10636 whole entry, looked up): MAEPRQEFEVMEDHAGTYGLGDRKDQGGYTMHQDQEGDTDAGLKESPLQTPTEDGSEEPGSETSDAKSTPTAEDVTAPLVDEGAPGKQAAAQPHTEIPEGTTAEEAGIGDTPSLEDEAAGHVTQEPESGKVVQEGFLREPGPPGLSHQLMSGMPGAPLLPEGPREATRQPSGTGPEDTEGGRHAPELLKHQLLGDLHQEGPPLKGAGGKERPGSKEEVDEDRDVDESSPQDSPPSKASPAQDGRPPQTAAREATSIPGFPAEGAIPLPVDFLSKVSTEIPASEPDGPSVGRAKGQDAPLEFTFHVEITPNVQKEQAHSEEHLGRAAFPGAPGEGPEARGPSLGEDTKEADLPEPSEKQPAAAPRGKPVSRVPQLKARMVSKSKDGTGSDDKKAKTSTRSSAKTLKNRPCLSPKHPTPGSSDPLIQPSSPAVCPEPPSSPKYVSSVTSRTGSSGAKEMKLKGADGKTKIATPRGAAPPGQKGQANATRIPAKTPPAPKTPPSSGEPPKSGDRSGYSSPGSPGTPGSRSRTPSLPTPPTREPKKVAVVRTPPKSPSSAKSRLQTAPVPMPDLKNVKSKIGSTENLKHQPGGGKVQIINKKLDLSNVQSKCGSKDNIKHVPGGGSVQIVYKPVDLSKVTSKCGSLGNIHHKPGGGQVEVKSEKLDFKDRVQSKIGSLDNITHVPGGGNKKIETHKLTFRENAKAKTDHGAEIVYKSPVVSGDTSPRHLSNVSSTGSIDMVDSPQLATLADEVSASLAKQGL
Structure (SMILES),Potency,"activity, negative = inhibition"
CCOC(=O)c1c(NC(=O)CCCOc2ccc(C(C)(C)C)cc2)sc2c1CCCC2,"inconclusive: 14.1 µM [inhibitor, partial curve]",–
CCCCC1=CC2=CC(=O)C(C)(OC(=O)CC)C(=O)C2=CN1C1CCCC1 (configuration not stated),inactive,–
CCOC(=O)N1CCN(c2ncnc3nc[nH]c23)CC1,"inconclusive: 14.1 µM [inhibitor, partial curve]",–
O=C(NNC1=NCCC1)c1cccc(S(=O)(=O)N2CCCC2)c1,–,inactive: -1%
CCOC(=O)c1cc(C)nc(S(C)(=O)=O)c1C#N,"inconclusive: 15.8 µM [inhibitor, partial curve]",–
CC(=O)Nc1c(S(=O)(=O)c2ccccc2)c2nc3ccccc3nc2n1Cc1ccccc1,"inconclusive: 39.8 µM [inhibitor, single point]",–
CN(C)c1ccc2c(c1)OC(N)=C(C#N)C2c1cccc(F)c1 (configuration not stated),"inconclusive: 35.5 µM [inhibitor, single point]",–
O=[N+]([O-])c1ccc(N2CCCCC2)cc1SCCO,"inconclusive: 8.91 µM [inhibitor, partial curve]",–
CCCC[P+](CCCC)(CCCC)Cc1ccc(NC(=O)[C@@H](Cc2ccc3ccccc3c2)NC(=NC2CCCCC2)NC2CCCCC2)cc1,"inconclusive: 15.8 µM [inhibitor, partial curve]",–
COc1ccccc1C(=O)OCc1cc(=O)n2nc(-c3cccs3)sc2n1,"inconclusive: 6.31 µM [inhibitor, partial curve]",–
CC1(C)N=C(SCC(=O)Nc2ccc(Cl)cc2)C(c2ccc(Cl)cc2)=N1,"inconclusive: 31.6 µM [inhibitor, single point]",–
Cn1c(=O)c2c(nc(CN3CCN(c4ccccc4)CC3)n2Cc2c(F)cccc2Cl)n(C)c1=O,"inconclusive: 35.5 µM [inhibitor, partial curve]",–
O=C(Oc1ccc(F)cc1)c1nc(SCc2ccc(F)cc2)ncc1Cl,"inconclusive: 15.8 µM [inhibitor, partial curve]",–
CCCCC/C=C\C[C@@H](O)/C=C/C=C\CCC(=O)O,–,inactive: -6.78%
CCCCN(Cc1cc2ccccc2[nH]c1=O)C(=O)c1cccc(Cl)c1,–,inactive: 1.87%
COC(=O)c1sc(-c2ccccc2)cc1NC(=O)Nc1ccc(Cl)cc1,"inconclusive: 6.31 µM [inhibitor, single point]",–
CC1=C(C(=O)NCc2ccccc2C)C2(CCCCCC2)OC1=O,–,inactive: 12.3%
COc1cc2nc(Nc3cccc(C)c3)nc(N)c2cc1OC,"inconclusive: 3.55 µM [inhibitor, full curve]",–
Cc1ccc(-c2noc(-c3ccccc3NC(=O)C3CC(=O)N(c4ccc(C)cc4)C3)n2)cc1 (configuration not stated),"inconclusive: 10 µM [inhibitor, partial curve]",–
CCCn1c(SCC(O)c2ccccc2)nc2ccccc21 (configuration not stated),–,inactive: 0.084%
CCOc1ccc(C(=O)NCCc2ccccc2)cc1,"inconclusive: 7.94 µM [inhibitor, partial curve]",–

Structure (SMILES),Potency,"activity, negative = inhibition"
CCNC(=S)Nc1scc(-c2ccccc2)c1C(=O)OCC,"inconclusive: 28.2 µM [inhibitor, partial curve]",–
CN(C)c1ccc(-c2nc(-c3cccs3)c(-c3cccs3)[nH]2)cc1,"inconclusive: 5.01 µM [inhibitor, partial curve]",–
CCOc1cc(/C=C2\C(=O)NN(c3ccccc3)C2=O)cc([N+](=O)[O-])c1O,"inconclusive: 8.91 µM [inhibitor, partial curve]",–
Cc1nn(-c2ccccc2)c2sc(C(=O)Nc3ccc(Br)cc3)cc12,"inconclusive: 11.2 µM [activator, partial curve]",–
O=C1COc2ccc(-c3cc(-c4ccccc4)c4c(n3)-c3ccccc3OC4)cc2N1,–,inactive: 7.41%
Cn1cc([N+](=O)[O-])c(C(=O)N/N=C\c2c[nH]c3ccccc23)n1,"inconclusive: 20 µM [inhibitor, single point]",–
COc1ccc(Nc2nnc(SCC(=O)N3CC(=O)Nc4ccccc43)s2)cc1,"inconclusive: 20 µM [inhibitor, single point]",–
Cc1ccc(O)c(/C=N/NC(=O)c2[nH]ncc2Br)c1,"inconclusive: 4.47 µM [inhibitor, full curve, poor fit]",–
COc1ccc(-n2c(=S)[nH]c3c(oc4ccccc43)c2=O)cc1,–,inactive: -21.5%
O=C(Nc1cccc(Cl)c1Cl)c1ccc(-c2ccccc2)cc1,"inconclusive: 2.51 µM [inhibitor, full curve]",–
N#Cc1c(N2CCCCC2)nc(N)c2c(N)nc3c(c12)CC(CCl)O3 (configuration not stated),"inconclusive: 2.51 µM [inhibitor, full curve]",–
CCCCN(C)C(=O)C1CCN(C/C(C)=C/c2ccccc2)CC1,–,inactive: -4.06%
O=Cc1c(Sc2ccccc2)nc2ccccn2c1=O,"inconclusive: 14.1 µM [inhibitor, partial curve]",–
CCn1nc(C)c(/C=N/NC(=S)Nc2ccc(Cl)cc2Cl)c1C,"inconclusive: 4.47 µM [inhibitor, partial curve]",–
C[C@H]1COC(=O)[C@H]2CCCN2C(=O)[C@@H](C)COC(=O)[C@H]2CCCN2C1=O,–,inactive: -2.53% [at 11.5 µM]
O=C(N/C=C\n1cnc2cc(C(F)(F)F)ccc21)c1ccc([N+](=O)[O-])cc1,"inconclusive: 28.2 µM [inhibitor, partial curve]",–
COc1ccc(C2CC(c3ccc(Br)cc3)=NN2C(=S)Nc2ccccc2)cc1 (configuration not stated),"inconclusive: 28.2 µM [inhibitor, partial curve, poor fit]",–
CC[C@H](C)[C@@H](NC(=O)O[C@@H]1Cc2cc(OC)ccc2O[C@H]1c1cccc(OC)c1)C(=O)OC,–,inactive: -9.18%
COc1ccc(F)cc1CN1CCN(c2ncnc3scc(-c4ccccc4)c23)CC1,"inconclusive: 10 µM [inhibitor, partial curve, poor fit]",–
Oc1c(C(c2ccccc2F)N2CCN(c3ccccc3F)CC2)sc2nc(-c3ccco3)nn12 (configuration not stated),"inconclusive: 2.24 µM [inhibitor, partial curve]",–
O=C(CN1CCOc2ccccc21)NCc1ccco1,"inconclusive: 3.55 µM [inhibitor, full curve]",–
